# According to a collection of fitness landscapes (doi:10.1126/science.1257360):
# The other results are listed elsewhere or left out.
# B1: PhoQ; a variant is named by its letters at X, in order, P23837 (parent)
# chain: MKKLLRLFFPLSLRVRFLLATAAVVLVLSLAYGMVALIGYSVSFDKTTFRLLRGESNLFYTLAKWENNKLHVELPENIDKQSPTMTLIYDENGQLLWAQRDVPWLMKMIQPDWLKSNGFHEIEADVNDTSLLLSGDHSIQQQLQEVREDDDDAEMTHSVAVNVYPATSRMPKLTIVVVDTIPVELKSSYMVWSWFIYVLSANLLLVIPLLWVAAWWSLRPIEALAKEVRELEEHNRELLNPATTRELTSLVRNLNRLLKSERERYDKYRTTLTDLTHSLKTPLXXLQXXLRSLRSEKMSVSDAEPVMLEQISRISQQIGYYLHRASMRGGTLLSRELHPVAPLLDNLTSALNKVYQRKGVNISLDISPEISFVGEQNDFVEVMGNVLDNACKYCLEFVEISARQTDEHLYIVVEDDGPGIPLSKREVIFDRGQRVDTLRPGQGVGLAVAREITEQYEGKIVAGESMLGGARMEVIFGRQHSAPKDE
# Variants of: B1
# Test: enrichment ratio after two sorts for PhoP signalling (ratio (wild type AVST 3.29)); higher = more functional
# Conditions: with PhoP (E. coli)
row,Variant,enrichment ratio
1,QMEC,≤ 0.25
2,MDQG,≤ 0.25
3,DGLP,≤ 0.25
4,MDWW,≤ 0.25
5,RSTE,≤ 0.25
6,TWNW,≤ 0.25
7,IGYA,≤ 0.25
8,PIMP,≤ 0.25
9,TCCH,7.95
10,TETP,≤ 0.25
11,LHPP,≤ 0.25
12,KYYT,≤ 0.25
13,SIHH,≤ 0.25
14,WGWK,≤ 0.25
15,YWFR,≤ 0.25
16,NNAH,≤ 0.25
17,AYIG,3.45
18,QHNP,≤ 0.25
19,SYIS,≤ 0.25
20,NLHH,≤ 0.25
21,MEQL,≤ 0.25
22,ITLE,1.41
23,MIKS,≤ 0.25
24,PIIW,0.353

row,Variant,enrichment ratio
1,KNGM,≤ 0.25
2,RQFA,≤ 0.25
3,VPGN,≤ 0.25
4,RFWG,≤ 0.25
5,LQSI,≤ 0.25
6,SWKN,≤ 0.25
7,SHLT,≤ 0.25
8,DGQN,≤ 0.25
9,GDSY,≤ 0.25
10,HQQT,≤ 0.25
11,FWYG,≤ 0.25
12,NPTM,≤ 0.25
13,RSHT,≤ 0.25
14,YHLE,≤ 0.25
15,ASTE,6.22
16,DTTW,≤ 0.25
17,SDKC,≤ 0.25
18,QPCR,≤ 0.25
19,RHKQ,≤ 0.25
20,DHIT,≤ 0.25
21,RGKA,≤ 0.25
22,PSIL,≤ 0.25
23,EDGM,≤ 0.25
24,RVAH,≤ 0.25

row,Variant,enrichment ratio
1,AIPW,≤ 0.25
2,PMRT,≤ 0.25
3,SSRR,≤ 0.25
4,KRRG,≤ 0.25
5,SGNR,≤ 0.25
6,TCYN,3.25
7,DNDR,≤ 0.25
8,AMLI,4.3
9,NDSR,≤ 0.25
10,YNIQ,≤ 0.25
11,FFSQ,≤ 0.25
12,SCHE,≤ 0.25
13,SYES,≤ 0.25
14,YSEH,≤ 0.25
15,QCDM,≤ 0.25
16,RDSE,≤ 0.25
17,AVRK,≤ 0.25
18,RNWC,≤ 0.25
19,KADI,≤ 0.25
20,DKPP,≤ 0.25
21,YAHL,≤ 0.25
22,GCTH,≤ 0.25
23,WISW,≤ 0.25
24,TTGI,9.44

row,Variant,enrichment ratio
1,YRCT,≤ 0.25
2,FEYA,≤ 0.25
3,TWHT,≤ 0.25
4,SFNS,≤ 0.25
5,INCV,≤ 0.25
6,YWYM,≤ 0.25
7,TGKY,≤ 0.25
8,FSPV,≤ 0.25
9,HIRQ,≤ 0.25
10,FTIG,≤ 0.25
11,PYEG,≤ 0.25
12,AEQP,≤ 0.25
13,KIWY,≤ 0.25
14,NWHI,≤ 0.25
15,FDAA,≤ 0.25
16,AEYM,3.72
17,TRIN,≤ 0.25
18,VDLR,≤ 0.25
19,TIMR,3.56
20,VRTR,≤ 0.25
21,DGRE,≤ 0.25
22,IYSC,≤ 0.25
23,VGDL,1.06
24,LLDF,≤ 0.25

row,Variant,enrichment ratio
1,TLIC,≤ 0.25
2,PYCK,≤ 0.25
3,LPNT,≤ 0.25
4,NGAN,≤ 0.25
5,NMDK,≤ 0.25
6,PSQS,≤ 0.25
7,YHRT,≤ 0.25
8,QVYC,≤ 0.25
9,YETH,≤ 0.25
10,KHVT,≤ 0.25
11,PCRP,≤ 0.25
12,IEQW,≤ 0.25
13,VFNR,≤ 0.25
14,GREW,≤ 0.25
15,KNWP,≤ 0.25
16,SNPA,≤ 0.25
17,DKCL,≤ 0.25
18,DMYT,≤ 0.25
19,SDKH,≤ 0.25
20,YTTL,3.18
21,NYRL,≤ 0.25
22,RAHC,≤ 0.25
23,YINF,0.532
24,YFLN,≤ 0.25

row,Variant,enrichment ratio
1,RMKC,≤ 0.25
2,IRHG,≤ 0.25
3,EKNM,≤ 0.25
4,TRIY,≤ 0.25
5,WVSI,≤ 0.25
6,VRIP,≤ 0.25
7,FRSE,0.705
8,DTTC,≤ 0.25
9,CTTS,16.8
10,GNMA,1.57
11,NTPA,≤ 0.25
12,HAKR,≤ 0.25
13,KAAM,≤ 0.25
14,AWYG,≤ 0.25
15,FRRG,≤ 0.25
16,RQFR,≤ 0.25
17,RRNA,≤ 0.25
18,MYYG,≤ 0.25
19,FIMH,≤ 0.25
20,IEAC,≤ 0.25
21,SYWI,≤ 0.25
22,RSET,≤ 0.25
23,YVPY,≤ 0.25
24,HADF,≤ 0.25

row,Variant,enrichment ratio
1,ECHY,≤ 0.25
2,MSSY,2.56
3,VDFS,≤ 0.25
4,RLNQ,≤ 0.25
5,NSLN,≤ 0.25
6,IMNY,≤ 0.25
7,VWAI,≤ 0.25
8,WHRL,≤ 0.25
9,FDCM,≤ 0.25
10,VQLG,0.851
11,VPTA,≤ 0.25
12,QHFA,≤ 0.25
13,EMST,≤ 0.25
14,FRDC,≤ 0.25
15,PLVP,≤ 0.25
16,LHMW,≤ 0.25
17,YKHD,≤ 0.25
18,YWWI,≤ 0.25
19,AQGG,6.04
20,HYYW,≤ 0.25
21,DQFE,≤ 0.25
22,NHAG,≤ 0.25
23,MFRR,≤ 0.25
24,VRFW,≤ 0.25

row,Variant,enrichment ratio
1,GWVT,≤ 0.25
2,DYWV,≤ 0.25
3,DHKF,≤ 0.25
4,KFNE,≤ 0.25
5,IFLG,≤ 0.25
6,MMFM,≤ 0.25
7,MEIM,48.5
8,PSKV,≤ 0.25
9,KLVA,≤ 0.25
10,MECS,11.2
11,DSMK,≤ 0.25
12,YQAI,≤ 0.25
13,SQIQ,10.4
14,FEEH,≤ 0.25
15,FFQN,≤ 0.25
16,QAAH,≤ 0.25
17,LDMV,≤ 0.25
18,SIHA,≤ 0.25
19,MKQL,≤ 0.25
20,FSMN,1.56
21,YIWI,≤ 0.25
22,FVES,≤ 0.25
23,RCMH,2.03
24,INYE,≤ 0.25

row,Variant,enrichment ratio
1,IHMN,≤ 0.25
2,PIIG,≤ 0.25
3,YSFR,≤ 0.25
4,MNRM,≤ 0.25
5,NLHW,≤ 0.25
6,RPIL,≤ 0.25
7,NMKK,≤ 0.25
8,HCLR,≤ 0.25
9,LAQK,≤ 0.25
10,YVSL,≤ 0.25
11,FNTN,≤ 0.25
12,QNCI,≤ 0.25
13,FQDY,≤ 0.25
14,QPKY,≤ 0.25
15,ANKQ,≤ 0.25
16,SKVT,3.24
17,FIND,≤ 0.25
18,FRAS,≤ 0.25
19,MNVH,≤ 0.25
20,EENL,≤ 0.25
21,VPEH,≤ 0.25
22,AHWL,≤ 0.25
23,HRDL,≤ 0.25
24,DPIT,≤ 0.25

row,Variant,enrichment ratio
1,DWWM,≤ 0.25
2,EALA,≤ 0.25
3,EANM,≤ 0.25
4,YQMD,0.351
5,VVHD,≤ 0.25
6,IGEK,≤ 0.25
7,VKNT,≤ 0.25
8,GPMV,≤ 0.25
9,LCMH,≤ 0.25
10,DEYN,≤ 0.25
11,IGTQ,≤ 0.25
12,MDHG,≤ 0.25
13,VCMY,≤ 0.25
14,GKRA,≤ 0.25
15,FNHF,≤ 0.25
16,DFGL,≤ 0.25
17,GARI,≤ 0.25
18,QCPI,≤ 0.25
19,PCCG,≤ 0.25
20,PKGW,≤ 0.25
21,THVL,≤ 0.25
22,PGMP,≤ 0.25
23,ERYT,≤ 0.25
24,KEWE,≤ 0.25

row,Variant,enrichment ratio
1,WCDP,0.342
2,WMHV,≤ 0.25
3,FNEQ,≤ 0.25
4,TMEV,25
5,FHKH,≤ 0.25
6,VYIP,≤ 0.25
7,MMIP,≤ 0.25
8,FRSD,≤ 0.25
9,KSWD,≤ 0.25
10,EAFP,≤ 0.25
11,YLEL,≤ 0.25
12,HYSQ,≤ 0.25
13,HEIY,≤ 0.25
14,VPPF,≤ 0.25
15,KLGC,≤ 0.25
16,NKVI,≤ 0.25
17,LADI,≤ 0.25
18,CMVH,≤ 0.25
19,IMIT,≤ 0.25
20,MFDH,≤ 0.25
21,TNSR,≤ 0.25
22,IVMQ,≤ 0.25
23,LQDG,≤ 0.25
24,QMIV,≤ 0.25

row,Variant,enrichment ratio
1,HDPL,≤ 0.25
2,INTT,≤ 0.25
3,VRGI,≤ 0.25
4,NISR,≤ 0.25
5,GQDN,≤ 0.25
6,GFHL,≤ 0.25
7,YWLH,≤ 0.25
8,WILK,≤ 0.25
9,KHFG,≤ 0.25
10,YSSE,≤ 0.25
11,LKMK,≤ 0.25
12,GSNK,≤ 0.25
13,LCVF,≤ 0.25
14,WPHA,≤ 0.25
15,LDAE,≤ 0.25
16,RQDT,≤ 0.25
17,EYLN,≤ 0.25
18,HVHT,≤ 0.25
19,VPTC,≤ 0.25
20,IGTG,≤ 0.25
21,PYYW,≤ 0.25
22,LGAR,≤ 0.25
23,YHRD,≤ 0.25
24,KPDV,≤ 0.25

row,Variant,enrichment ratio
1,EMYC,≤ 0.25
2,TNMD,≤ 0.25
3,LCKV,≤ 0.25
4,MCKG,≤ 0.25
5,APPI,≤ 0.25
6,RMMY,≤ 0.25
7,WPCK,≤ 0.25
8,GASM,2.46
9,DDCA,≤ 0.25
10,TPWV,≤ 0.25
11,YYHH,≤ 0.25
12,VMNK,≤ 0.25
13,VRQQ,≤ 0.25
14,TPEE,≤ 0.25
15,SRVP,≤ 0.25
16,FTTH,≤ 0.25
17,NGRS,≤ 0.25
18,YDLD,≤ 0.25
